Data reported in publication PMC4336329 (PLoS ONE, 2015).
The campaign covered roughly 310,000 compounds. About 14,000 (4.5%) showed an effect of 50% or more. Effects have a minus sign here. The list shows a part of the results.

Molecular target: human ether-à-go-go-related gene (hERG) potassium channel (human, UniProt Q12809)
Experiment: primary screen, population patch clamp on CHO cells stably expressing hERG
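Further: peak tail current of the secondary pulse compared with the same well before compound.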

Chain of human ether-à-go-go-related gene (hERG) potassium channel (Q12809 whole entry, looked up): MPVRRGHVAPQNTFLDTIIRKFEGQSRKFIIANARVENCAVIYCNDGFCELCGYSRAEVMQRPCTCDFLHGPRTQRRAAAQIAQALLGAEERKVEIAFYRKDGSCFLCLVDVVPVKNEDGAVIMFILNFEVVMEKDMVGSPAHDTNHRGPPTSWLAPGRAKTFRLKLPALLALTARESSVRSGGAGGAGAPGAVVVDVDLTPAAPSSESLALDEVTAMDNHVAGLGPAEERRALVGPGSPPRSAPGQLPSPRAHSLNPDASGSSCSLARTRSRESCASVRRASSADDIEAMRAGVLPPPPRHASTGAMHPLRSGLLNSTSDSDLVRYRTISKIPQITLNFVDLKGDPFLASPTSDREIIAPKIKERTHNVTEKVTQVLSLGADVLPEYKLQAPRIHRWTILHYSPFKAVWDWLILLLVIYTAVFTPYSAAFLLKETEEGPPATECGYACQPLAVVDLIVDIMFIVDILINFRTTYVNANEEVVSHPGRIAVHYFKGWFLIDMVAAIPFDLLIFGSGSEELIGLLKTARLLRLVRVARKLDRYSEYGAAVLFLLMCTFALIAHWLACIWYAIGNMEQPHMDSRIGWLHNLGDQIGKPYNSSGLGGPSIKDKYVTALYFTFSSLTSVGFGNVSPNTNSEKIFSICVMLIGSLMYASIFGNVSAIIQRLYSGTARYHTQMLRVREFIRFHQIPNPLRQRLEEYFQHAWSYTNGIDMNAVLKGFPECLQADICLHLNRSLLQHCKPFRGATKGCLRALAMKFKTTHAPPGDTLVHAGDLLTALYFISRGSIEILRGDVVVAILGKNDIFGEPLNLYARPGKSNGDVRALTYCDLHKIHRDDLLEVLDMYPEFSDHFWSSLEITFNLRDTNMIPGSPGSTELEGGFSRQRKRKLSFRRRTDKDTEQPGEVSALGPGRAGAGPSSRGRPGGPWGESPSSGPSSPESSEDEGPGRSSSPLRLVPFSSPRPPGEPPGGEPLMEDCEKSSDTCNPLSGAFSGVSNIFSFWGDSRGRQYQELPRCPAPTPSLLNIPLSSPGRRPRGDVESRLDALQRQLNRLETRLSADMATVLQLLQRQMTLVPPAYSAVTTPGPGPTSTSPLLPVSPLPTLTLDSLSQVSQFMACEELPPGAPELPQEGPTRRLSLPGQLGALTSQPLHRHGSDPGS

Row | Structure (SMILES) | hERG current change (%, negative = inhibition) at 10uM
1 | Cc1c(NC(=O)c2c(O)c3ccccc3n(C)c2=O)c(=O)n(-c2ccccc2)n1C | 16.2%
2 | COC(=O)c1ccccc1NC(=O)COc1ccc(S(=O)(=O)NC(C)C)cc1 | 36.2%
3 | CCOc1ccc(NC(=O)C(CC(=O)O)Cc2ccccc2)cc1 (stereo not shown) | 5.94%
4 | CSc1ccc(S(=O)(=O)NCc2ccc(Cl)cc2Cl)cc1 | -1.53%
5 | COc1cc(C2CC(=O)Nc3ccccc3S2)cc(OC)c1OC (stereo not shown) | -12.7%
6 | CCS(=O)(=O)N1CCC(C(=O)NCc2ccc(F)cc2Cl)CC1 | 10.5%
7 | COc1ccc(OC)c2sc(NNC(=O)C3COc4ccccc4O3)nc12 (stereo not shown) | 11.7%
8 | COc1ccc(/C=N/NC(=O)CCNc2n[nH]c(=O)[nH]c2=O)c(OC)c1 | 27%
9 | COc1ccc(-c2[nH]nc3c2C(c2ccoc2)C(C#N)=C(N)O3)cc1 (stereo not shown) | -5.89%
10 | CCc1cccc(NC(=S)N2CCC(c3ccccc3)C2)c1 (stereo not shown) | 8.17%
11 | CCCNc1ncnc2nc[nH]c12 | -9.64%
12 | C(=N\n1cnnc1)/c1cccnc1 | 1.61%
13 | CCOC(=O)C1CCCN(C(=O)c2ccc3c(=O)n(Cc4ccccc4OC)c(=S)[nH]c3c2)C1 (stereo not shown) | 1.81%
14 | O=C(CCNC(=O)c1ccccc1Cl)Nc1cccc(C(F)(F)F)c1 | -5.93%
15 | COc1ccc2nc(NC(=O)CN(c3ccc(C)cc3)S(=O)(=O)c3c(C)nn(C)c3C)sc2c1 | -21.6%
16 | Cc1ccc(-c2csc(NC(=O)c3cccc([N+](=O)[O-])c3C(=O)O)n2)cc1 | 5.68%
17 | COC(=O)C1=C(c2cc3ccccc3o2)C[C@@H]2CC[C@H]1N2C(=O)NCc1ccco1 | -4.6%
18 | Cc1onc(-c2ccccc2)c1C(=O)Nc1cccc(OC(C)C)c1 | -11.6%
19 | CN(C)CCN(C(=O)/C=C/c1cccs1)c1nc2ccc(Br)cc2s1.Cl | 12.7%
20 | COc1ccccc1C(=O)Nc1ccccc1N1CCN(S(C)(=O)=O)CC1 | -62%
21 | Cc1ccccc1SCC(=O)NNC(=O)c1ccncc1 | -3.16%
22 | COc1ccc(/C(C)=N/NC(=O)CNC(=O)c2cccs2)cc1 | 7.66%
23 | C=CCNc1nc(-c2cc3ccccc3o2)cs1 | 3.51%

Row | Structure (SMILES) | hERG current change (%, negative = inhibition) at 10uM
24 | Fc1ccc(-c2ccc(/C=N/n3cnnc3)o2)cc1 | -9.01%
25 | CCS(=O)(=O)N1CCC(C(=O)N2CCOCC2)CC1 | 12%
26 | N#Cc1ccc(OCC(=O)OCC(=O)Nc2ccc(N3CCOCC3)cc2)cc1 | -15.3%
27 | C=C(C)[C@H]1CC=C(C)C(=O)C1 | 19%
28 | Cc1ccccc1C(O)c1ccccn1 (stereo not shown) | 3.92%
29 | CCCCNS(=O)(=O)c1ccc(OCC(=O)N2CCN(Cc3ccc4c(c3)OCO4)CC2)cc1 | -27%
30 | N=c1c2c(-c3ccccc3)c(-c3ccccc3)n(Cc3ccco3)c2ncn1CCCN1CCOCC1 | -84.9%
31 | OC(CNc1nc2ccccc2s1)c1ccccc1 (stereo not shown) | -5.81%
32 | O=C(CSc1ncccn1)n1c2c(c3ccccc31)CCCC2 | -7.25%
33 | O=C(NC(=S)NCc1nc2ccccc2[nH]1)c1ccc(F)cc1 | -0.141%
34 | N/C(=N\OC(=O)c1cccc2ccccc12)c1cccc([N+](=O)[O-])c1 | 3.63%
35 | CC(C)N(C(=O)Cn1c(Cl)nc2ccccc21)C(C)C | 8.7%
36 | O=C(CN1C(=O)C2C3C=CC(C3)C2C1=O)NCCc1ccccc1 (stereo not shown) | 10.6%
37 | COc1ccc(CCCC(=O)O)c(C)c1 | 25.8%
38 | CCCCc1nnc(NC(=O)CCS(=O)(=O)Cc2ccccc2)s1 | 15.2%
39 | Cl.O=C(CN1CCCCC1)NCC1(c2ccccc2)CCCC1 | -5.19%
40 | CC(=O)N1CCN(S(=O)(=O)c2cccc(C(=O)Nc3ccccc3N3CCOCC3)c2)CC1 | -5.88%
41 | Oc1cccc2cnccc12 | 1.3%
42 | C/C(O)=c1/ccc2cccc3nc(C)nc1c23 | 7.96%
43 | CC(=O)Nc1ccc2nc(SCC(=O)N3CCOCC3)sc2c1 | 18.9%
44 | O=C1C=C(c2ccccc2)C[C@@H](c2ccc3c(c2)OCO3)C1 | -4.15%
45 | CCN(CC)S(=O)(=O)c1cc(-c2nnc(-c3ccc(Br)cc3)o2)ccc1Cl | -6.62%
46 | O=C(COc1ccc(Cl)cc1)NCc1nnc(SCC(=O)NCC2CCCO2)o1 (stereo not shown) | 8.31%
